{"source": "PubChem BioAssay AID504339", "about": "(National Center for Advancing Translational Sciences (NCATS), 2011)", "note": "Among all 390,000 compounds or so, about 17,000 (4.4%) were called active. The shares of active, inactive and inconclusive entries below differ from those in the screen. Calls come from the whole dose curve; as a rule, active = well fitted inhibition curve with a large enough effect; inconclusive = small, poorly fitted or top-dose-only effect; inactive = no such curve, though single readings can be large or run the other way. Potencies beside an inconclusive call are fits to weak or partial responses and may not hold up. % is set by controls: 0 for no effect and ±100 for the full control effect; potency is the fitted concentration of half-maximal effect; tags give direction and shape of the fitted curve.", "data": [{"target": "Lysine-specific demethylase 4A (Homo sapiens) (UniProt O75164)", "sequence (O75164 whole entry, looked up, the tested form may be a part)": "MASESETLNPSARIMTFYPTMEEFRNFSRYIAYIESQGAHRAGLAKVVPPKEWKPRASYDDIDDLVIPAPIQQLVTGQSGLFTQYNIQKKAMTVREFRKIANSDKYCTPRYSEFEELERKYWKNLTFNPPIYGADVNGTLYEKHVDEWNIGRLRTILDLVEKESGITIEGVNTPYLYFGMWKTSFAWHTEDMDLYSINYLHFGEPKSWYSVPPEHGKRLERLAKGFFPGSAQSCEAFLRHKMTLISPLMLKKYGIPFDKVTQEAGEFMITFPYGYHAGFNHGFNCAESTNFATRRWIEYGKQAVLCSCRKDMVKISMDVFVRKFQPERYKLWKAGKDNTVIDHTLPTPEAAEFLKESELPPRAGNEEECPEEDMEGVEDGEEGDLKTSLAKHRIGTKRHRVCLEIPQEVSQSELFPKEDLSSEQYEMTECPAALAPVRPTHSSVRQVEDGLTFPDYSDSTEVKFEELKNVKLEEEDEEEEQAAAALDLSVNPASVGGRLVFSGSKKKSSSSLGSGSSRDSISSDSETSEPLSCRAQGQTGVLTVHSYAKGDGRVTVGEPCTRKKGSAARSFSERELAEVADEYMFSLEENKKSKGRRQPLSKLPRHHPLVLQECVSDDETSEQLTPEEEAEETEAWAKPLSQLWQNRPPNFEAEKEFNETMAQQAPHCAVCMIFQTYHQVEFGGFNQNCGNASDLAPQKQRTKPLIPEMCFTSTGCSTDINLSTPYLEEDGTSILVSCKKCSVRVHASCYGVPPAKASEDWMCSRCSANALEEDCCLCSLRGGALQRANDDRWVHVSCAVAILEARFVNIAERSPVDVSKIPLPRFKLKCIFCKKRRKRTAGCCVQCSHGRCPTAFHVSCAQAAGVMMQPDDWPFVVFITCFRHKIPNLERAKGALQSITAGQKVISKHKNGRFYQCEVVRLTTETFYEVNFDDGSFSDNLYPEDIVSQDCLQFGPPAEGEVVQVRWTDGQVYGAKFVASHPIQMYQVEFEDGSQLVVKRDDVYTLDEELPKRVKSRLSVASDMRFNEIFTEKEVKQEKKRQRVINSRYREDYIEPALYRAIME", "test": "qHTS Assay for Inhibitors of JMJD2A-Tudor Domain; note: nearly all actives have a fitted effect of over 50% in size", "settings": "AlphaScreen JMJD2A-Tudor / H3K4me3 peptide binding; activity change, negative = inhibition: at 114 µM (top of the series)", "values": [{"smiles": "O=C(O)CC1S/C(=N/N=C/c2ccc(-c3ccc(Cl)cc3[N+](=O)[O-])o2)NC1=O", "note": "(stereo not given)", "Potency": "inconclusive: 50.1 µM [inhibitor, partial curve]"}, {"smiles": "COc1ccc(NC(=O)CN2CCC(C)CC2)c([N+](=O)[O-])c1", "Potency": "inconclusive: 35.5 µM [inhibitor, partial curve]"}, {"smiles": "O=C(CSc1nc(=O)[nH]c2c1CCCC2)NCc1ccc(F)cc1", "activity change, negative = inhibition": "inactive: -2.6%"}, {"smiles": "Cc1cc(C)nc(NC(=O)c2ccc(C)c([N+](=O)[O-])c2)n1", "activity change, negative = inhibition": "inactive: -11.1%"}, {"smiles": "O=C(O)c1cc(-c2ccc(-c3c(-c4ccc5c(c4)OCO5)noc3-c3ccsc3)cc2)nc2ccccc12", "Potency": "active: 89.1 µM"}, {"smiles": "CCOC(=O)c1ccc(NC(=S)N(CCN2CCCCCC2)Cc2ccco2)cc1", "Potency": "inconclusive: 63.1 µM [inhibitor, partial curve]"}, {"smiles": "COc1ccc(/C=N/NC(=O)c2ccc(NC(=O)c3cccc([N+](=O)[O-])c3)cc2)c(C(=O)O)c1OC", "Potency": "inconclusive: 79.4 µM [inhibitor, partial curve]"}, {"smiles": "CCN(CC)c1ccc(NC(=O)COC(=O)Cc2ccsc2)cc1", "Potency": "active: 50.1 µM"}, {"smiles": "CN(C)CCN(Cc1ccco1)C(=O)c1oc2ccccc2c1NC(=O)c1cccc(F)c1", "Potency": "inconclusive: 56.2 µM [inhibitor, partial curve]"}, {"smiles": "COc1ccc(C(=O)/C=C/c2cn(CC(O)CN3CCOCC3)c3ccccc23)cc1", "note": "(stereo not given)", "activity change, negative = inhibition": "inactive: -23.5%"}, {"smiles": "Cc1cccc2c(N)c3c(nc12)N(C)CC3", "Potency": "active: 17.8 µM"}, {"smiles": "O=C(Cn1cc(/C=N/O)c2ccccc21)N1CCOCC1", "Potency": "inconclusive: 79.4 µM [inhibitor, single point]"}, {"smiles": "COC(=O)c1ccc(C2C(C(=O)c3cc4ccccc4o3)=C(O)C(=O)N2c2cc(C)on2)cc1", "note": "(stereo not given)", "Potency": "inconclusive: 50.1 µM [inhibitor, partial curve]"}, {"smiles": "Cc1c(C(=O)N2CCOCC2)c(S(=O)(=O)Nc2cccc(Br)c2)c(C)n1C", "Potency": "inconclusive: 22.4 µM [inhibitor, full curve]"}, {"smiles": "CCOC(=O)c1ccc(N=c2sc(C(=O)OC)cc(=O)n2-c2ccc(C(=O)OCC)cc2)cc1", "Potency": "inconclusive: 20 µM [inhibitor, full curve]"}, {"smiles": "Cc1cc2c(n1-c1ccc(Cl)cc1)CC(C)(C)CC2=O", "Potency": "inconclusive: 25.1 µM [inhibitor, full curve]"}, {"smiles": "Cc1ccc(CNC(=O)c2cc3c(s2)-c2c(C)cccc2OC3)cc1", "activity change, negative = inhibition": "inactive: -6.91%"}, {"smiles": "CC1CCCN(CCOc2ccc(Br)cc2)C1", "note": "(stereo not given)", "Potency": "active: 20 µM"}, {"smiles": "CCCOc1ccc(NC(=O)C(=O)NCCCN2CCOCC2)cc1", "activity change, negative = inhibition": "inactive: 3.46%"}, {"smiles": "CCCCCn1c(=O)[nH]c2cc(C(=O)NCc3ccccc3)ccc2c1=O", "activity change, negative = inhibition": "inactive: -21.2%"}, {"smiles": "CC(C)(C)C1CCC(=NNC(=O)C(=O)NCc2cccnc2)CC1", "note": "(stereo not given)", "activity change, negative = inhibition": "inactive: -13.8%"}, {"smiles": "Cc1c(-c2n[nH]c(=S)n2-c2ccc(Br)cc2)nnn1-c1ccc(Cl)cc1", "Potency": "inconclusive: 50.1 µM [inhibitor, partial curve]"}, {"smiles": "COc1ccc(S(=O)(=O)NNc2nc(C)cc(C)n2)cc1[N+](=O)[O-]", "activity change, negative = inhibition": "inactive: -13.8%"}, {"smiles": "O=C(Cc1cnn(-c2ccccc2)c1)c1ccc(O)c(O)c1O", "Potency": "inconclusive: 63.1 µM [inhibitor, partial curve, poor fit]"}, {"smiles": "O=C(Cn1nnc(-c2ccc(CN3CCOCC3)cc2)n1)Nc1nc(-c2ccccc2)cs1", "Potency": "inconclusive: 22.4 µM [inhibitor, full curve]"}, {"smiles": "Cc1nnc(NC(=O)CC(NC(=O)C(F)(F)F)c2ccccc2)s1", "note": "(stereo not given)", "activity change, negative = inhibition": "inactive: -16.8%"}, {"smiles": "O=c1c(N=Nc2ccc(O)cc2)c(-c2ccccc2)[nH]n1-c1ccc([N+](=O)[O-])cc1", "Potency": "inconclusive: 3.16 µM [inhibitor, full curve]"}, {"smiles": "CCN(CC)S(=O)(=O)c1ccc2c(c1)N(CC(=O)NCCCN1CCN(c3cc(Cl)ccc3C)CC1)C(=O)CO2", "Potency": "inconclusive: 100 µM [inhibitor, single point]"}, {"smiles": "COc1ccc(N2CCN(C(=O)c3cc4c(-c5cccc(OC)c5)nn(C)c4s3)CC2)cc1", "Potency": "active: 39.8 µM"}, {"smiles": "CCCn1cnc2cc(NCc3ccc(OC)cc3OC)ccc21", "Potency": "inconclusive: 56.2 µM [inhibitor, partial curve]"}, {"smiles": "CCOc1ccc(NS(=O)(=O)c2ccc(C(=O)NCC(C)(C)N3CCOCC3)cc2)cc1", "activity change, negative = inhibition": "inactive: -11%"}, {"smiles": "CCOc1ccc(CC(=O)N2CCc3cc(OC)c(OC)cc3C2COc2ccc3c(C)cc(=O)oc3c2)cc1", "note": "(stereo not given)", "activity change, negative = inhibition": "inactive: -1.37%"}, {"smiles": "COc1cc(CO)ccc1OCC(=O)Nc1ccc(Br)cc1", "activity change, negative = inhibition": "inactive: -23.2%"}, {"smiles": "Cc1cc(=O)oc2cc(OCC(=O)Nc3ccc(O)c(C(=O)O)c3)ccc12", "Potency": "inconclusive: 79.4 µM [inhibitor, single point]"}, {"smiles": "O=S(=O)(Nc1cc(S(=O)(=O)N2CCOCC2)ccc1NCC1CCCO1)c1ccccc1", "note": "(stereo not given)", "activity change, negative = inhibition": "inactive: -18.2%"}, {"smiles": "CCOc1cc(C2NN=C(c3ccccc3)S2)ccc1OCc1ccccc1Cl", "note": "(stereo not given)", "Potency": "inconclusive: 100 µM [inhibitor, single point]"}, {"smiles": "NC(=O)c1cc([N+](=O)[O-])ccc1NCCc1ccccc1", "activity change, negative = inhibition": "inactive: -19.9%"}, {"smiles": "Cc1nn(-c2cccc(C(F)(F)F)c2)c(Cl)c1/C=N/Nc1cccc(C(=O)O)c1", "Potency": "inconclusive: 44.7 µM [inhibitor, single point]"}, {"smiles": "COCCn1c(C)cc(C(=O)COC(=O)c2ccc3ncsc3c2)c1C", "Potency": "inconclusive: 3.16 µM [inhibitor, single point]"}, {"smiles": "COc1ccc(/C=N/N(Cc2ccccc2)c2ccccc2)cc1O", "Potency": "active: 10 µM"}, {"smiles": "COc1cccc(Oc2cc(NN3CCCCC3)c([N+](=O)[O-])cc2[N+](=O)[O-])c1OC", "Potency": "inconclusive: 39.8 µM [inhibitor, partial curve]"}, {"smiles": "C[C@]12c3[nH]c4ccc(Cl)cc4c3CCN1C(=O)[C@@H](CC(=O)NCCCn1ccnc1)C[C@@H]2C(=O)N1CCCCC1", "Potency": "inconclusive: 39.8 µM [inhibitor, partial curve, poor fit]"}, {"smiles": "CC1NC(=O)NC1CCCCC(=O)O", "note": "(stereo not given)", "activity change, negative = inhibition": "inactive: -0% [at 11.4 µM]"}, {"smiles": "CCCCOc1ccc(C(=O)Nc2ccc(C)cc2[N+](=O)[O-])cc1", "Potency": "inconclusive: 3.16 µM [inhibitor, full curve]"}, {"smiles": "O=C(CCCc1c[nH]c2ccccc12)Nc1ccc2ccccc2c1", "Potency": "inconclusive: 56.2 µM [inhibitor, partial curve]"}]}]}
